Out of some 43,000 compounds screened, about 200 (0.47%) were called active. About 12% were inconclusive and are not listed. Calls come from the whole dose curve; as a rule, active = well fitted cell-killing curve with a large enough effect; inconclusive = small, poorly fitted or top-dose-only effect, or effect the other way; inactive = flat fitted curve, though single readings scatter. The list shows a part of the results.
Assay: Cell viability qHTS assay in S16 Pmp22-F2sN cells; note: nearly all actives have a fitted effect of over 65% in size
Conditions: S16 Pmp22-F2sN Schwann cells viability, CellTiter-Glo, 24 h; series mostly up to 57.5 µM; activity change, negative = cytotoxicity: at the top concentration
Procedure, shortened: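 S16 Pmp22-F2sN Schwann cells (500-1,000/well) in phenol-red-free DMEM with 10% FBS received 23 nL compound by pin tool for 24 h at 37 °C. Viability was then read as CellTiter-Glo luminescence after 15 min at room temperature.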
% is set by controls: 0 for no effect and ±100 for the full control effect.

Structure (SMILES) | activity change, negative = cytotoxicity
Cn1c(=O)oc2cc(S(=O)(=O)N3CCCC(C(=O)N4CCN(c5cccc(Cl)c5)CC4)C3)ccc21 (centres undefined) | inactive: -27.2%
O=C(NCCCCc1ccccc1)c1nn(-c2ccccc2)nc1CO | inactive: 0.212%
COc1ccc(NC(=O)Cn2nnc(C(=O)Nc3ccc(C)c(F)c3)c2N)cc1Cl | inactive: -1.23%
CC1=C(C(=O)OCC2CCCCC2)C(c2cccc(F)c2F)CC(=O)N1 (centres undefined) | inactive: 10.4%
CCc1ccc(Cn2nnc(C(=O)Nc3ccc(C)cc3)c2N)cc1 | inactive: -0.408%
CC(C)c1ccc(NC(=O)C2CCCN(S(=O)(=O)c3ccc4[nH]c(=O)ccc4c3)C2)cc1 (centres undefined) | inactive: 6.52%
CCOC(=O)c1ccc2c(c1)N(CC(=O)Nc1ccc(CC)cc1)C(=O)c1ccccc1S2 | inactive: 10%
COc1cc(NC(=O)Cn2cnc3sc(C)c(S(=O)(=O)N4CCN(C)CC4)c3c2=O)cc(OC)c1OC | inactive: 2.58%
Cc1ccc(Nc2c(-c3ccc(N4CCOCC4)cc3)nc3ncccn23)cc1C | inactive: -18.1%
CCCN(CCC)CCCNC(=O)c1cn(CC)c2ccc(S(=O)(=O)N3CCc4ccccc4C3)cc2c1=O | inactive: -1.33%
COc1cccc(CNCCSc2nnnn2C)c1OCc1ccc(Cl)cc1 | inactive: -17.9%
CCOc1cccc(C(=O)Nc2ccc(NC(=O)c3ccc(Br)cc3)cc2)c1 | inactive: -11.4%
CCOC(=O)c1ccc(NC(=O)CC2C(=O)N(c3ccccc3)C(=O)N2C2CCCCC2)cc1 (centres undefined) | inactive: -2.45%
CCN(c1ccc(C)cc1C)S(=O)(=O)c1nnc(NC(=O)c2ccccc2OC)s1 | inactive: -18.1%
O=C(CSc1oc(-c2ccco2)nc1S(=O)(=O)c1ccccc1)c1ccc(Cl)cc1 | inactive: -6.02%
Cn1c(SCc2ccc(F)cc2)nc2ccc(C(=O)NCc3ccccc3)cc21 | inactive: 4.91%
CCCCn1cc(S(=O)(=O)c2ccc(Cl)cc2)c(=O)c2cc(F)c(N3CCCCC3)cc21 | inactive: -3.99%
Cc1cc(C)c2oc(C(=O)Nc3c(C(=O)Nc4ccccc4)oc4ccccc34)cc(=O)c2c1 | inactive: 6.3%
COc1cccc(N2C(=O)CSC23C(=O)N(CC(=O)NCc2ccc(C)cc2)c2ccccc23)c1 (centres undefined) | inactive: -2.56%
CSC1=NC2(CCN(C(=O)NC3CCCCC3)CC2)N=C1c1ccc(C(C)(C)C)cc1 | inactive: -12.5%
O=C(C1CCN(c2nc3ccccc3[nH]2)CC1)N1CCN(c2cccc(Cl)c2)CC1 | inactive: -11.7%
CCc1ccc2occ(CC(=O)Nc3sc4c(c3C(=O)OC)CCC4)c2c1 | inactive: 0.988%
COc1ccccc1CNC(=O)c1c(O)nc2cc(C)ccn2c1=O | inactive: -1.11%
Cc1nc2ccc(S(=O)(=O)NC(C(=O)NCc3ccc(Cl)cc3)C(C)C)cc2s1 (centres undefined) | inactive: 0.993%

Structure (SMILES) | activity change, negative = cytotoxicity
Cc1cccc(C(=O)Nc2ccccc2C(=O)OCc2cc(=O)n3nc(C4CC4)sc3n2)c1 | inactive: 7%
CCOC(=O)c1c(-c2ccc(OC)c(OC)c2)csc1NC(=O)c1ccc(F)cc1 | inactive: 15.2%
CC(C)Oc1ccc(CNC(=O)Cn2ncn3nc(-c4cccs4)cc3c2=O)cc1 | inactive: -4.62%
COC(=O)c1ccccc1-n1c(CCC(=O)O)ccc1-c1ccccc1 | inactive: -3.04%
COc1cccc(CNC(=O)c2ccc3c(c2)nc2n3CCC(C)C2)c1OC (centres undefined) | inactive: 16.6%
Cc1ccnc(NS(=O)(=O)c2ccc(NC(=O)c3nc(SC(C)C)ncc3Cl)cc2)n1 | inactive: 7.26%
COc1ccc(C(=O)NCC(c2ccco2)S(=O)(=O)c2cccs2)cc1OC (centres undefined) | inactive: -20.5%
CCc1ccccc1NC(=O)C(=O)NCCc1sc(-c2cccc(F)c2)nc1C | inactive: 8.9%
CCOc1ccc(CCNC(=O)c2cc3sc(CC)cc3n2C)cc1OCC | inactive: -4.47%
Cc1ccc(S(=O)(=O)c2cn(Cc3ccc(F)cc3)c3cc(N4CCCC4)c(F)cc3c2=O)cc1 | inactive: 0.224%
Cc1[nH]c2ccccc2c1SCCNC(=O)c1ccccc1F | inactive: -1.11%
Cc1ccc(-n2ncc3c(NCC(C)C)ncnc32)c(C)c1 | inactive: -1.48%
COc1ccccc1-c1cc2nc(C)c(CCC(=O)Nc3cc(C)ccc3C)c(C)n2n1 | inactive: -1.06%
CCc1ccc(NC(=O)Cn2cnc3sc(C)c(S(=O)(=O)N4CCN(c5ccccc5OC)CC4)c3c2=O)cc1 | inactive: -1.37%
CCC(C)NC(=O)CCc1c(C)nc2cc(-c3ccc(OC)cc3OC)nn2c1C (centres undefined) | inactive: 2.41%
O=C(CSc1nc2c(c(=O)[nH]1)CN(Cc1ccc3c(c1)OCO3)CC2)Nc1ccc(F)c(F)c1 | inactive: 2.58%
Cc1ccc(C)c(NC(=O)Nc2cccc(-c3cn4cccnc4n3)c2)c1 | inactive: -11.2%
COc1ccc(-n2nnc(-c3nc(-c4cccs4)no3)c2N)cc1 | inactive: 1.64%
Cc1oc(-c2ccccc2F)nc1CSc1nnc(C)n2c1cc1occc12 | inactive: 7.46%
CC(C)(C)OC(=O)N1CCC(c2c(C(=O)N3CCOCC3)cnn2-c2cccc(F)c2)CC1 | inactive: -28.3%
COC(=O)c1ccccc1-n1cc2c(c1-c1cccc(C)c1)c(=O)n(C)c(=O)n2C | inactive: -1.51%
O=C(Nc1ccc(F)c(Cl)c1)N1CCC(CN2CCc3ccccc3C2)CC1 | inactive: 8.38%
Cc1cccc(-c2nc3ccccc3n3c(-c4ccccc4)c4c(=O)n(C)c(=O)n(C)c4c23)c1 | inactive: -1.39%
Cc1cc(C)cc(N2CCn3c2nc2c3c(=O)n(CCCc3ccccc3)c(=O)n2C)c1 | inactive: 11.3%

Structure (SMILES) | activity change, negative = cytotoxicity
CC(C)(C)C(=O)Cn1c(=O)n(-c2ccc(Cl)c(Cl)c2)c(=O)c2c3c(sc21)CCCC3 | inactive: 8.94%
CCOc1ccc(-c2noc(CSc3nnc(Cc4ccccc4)n3-c3cccc(C)c3)n2)cc1 | inactive: -23.7%
Cc1ccc(-c2nc3cc(C(C)C)ccc3o2)cc1NC(=O)c1cc([N+](=O)[O-])ccc1N1CCOCC1 | inactive: -0.381%
COCCCNC(=O)C1CCCN(c2nn3cc(-c4ccc(C)cc4)nc3s2)C1 (centres undefined) | inactive: -0.765%
Cc1ccc(CNC(=O)CCCn2c(=O)c3ccccc3n(Cc3ccc(Cl)cc3)c2=O)cc1 | inactive: 12.9%
CN(C(=O)CSc1nnc(-c2ccc([N+](=O)[O-])cc2)o1)c1ccccc1 | inactive: 17.2%
Cc1ccc(CNC(=O)CCC(=O)N2CCSc3ccccc32)cc1 | inactive: 8.49%
COc1ccc(CCNC(=O)Cn2cc(C(=O)c3ccc(F)cc3)c(=O)c3ccc(C)nc32)cc1OC | inactive: 18.3%
CCc1ccc(NC(=O)N2CCN(C(=O)c3nsc4ccccc34)CC2)cc1 | inactive: 7.68%
O=C(Nc1ccc(C(F)(F)F)cc1)N1CCC(N2CCCCC2)CC1 | inactive: 8.59%
CNC(=O)C1CCN(c2nc3ccccc3nc2C(F)(F)F)CC1 | inactive: -19.2%
CCCN(C(=O)Cn1cc(S(=O)(=O)N2CCN(c3ccccc3F)CC2)c2ccccc2c1=O)c1cccc(C)c1 | inactive: -8.9%
CC(C)CN(CCNC(=O)c1cc(-c2ccc(Cl)s2)nc2ccccc12)CC(C)C | inactive: -1.21%
COc1cccc(CNC(=O)Cn2c(C)c3cnn(-c4ccccc4)c(=O)c3c2C)c1 | inactive: 13.9%
COc1cc(Cl)c(C)cc1NC(=O)c1cnc2c(-c3cccc(C)c3)c(C)nn2c1C | inactive: 0.461%
Cc1ccsc1CN1CCc2nc(N3CCN(c4ccccc4F)CC3)ncc2C1 | inactive: -5.48%
CNC(=O)c1ccc(CSc2nc3ccncc3n2Cc2ccc(C)cc2)cc1 | inactive: -26.8%
Brc1ccc2nc(SCCOc3ccccc3)[nH]c2c1 | inactive: -1.82%
Cc1ccc2c(c1)N(C(=O)Nc1cccc3c1CCCC3)CC(C)O2 (centres undefined) | inactive: -17.3%
Cc1ccc2oc(-c3cc(NC(=O)/C=C/c4ccco4)ccc3Cl)nc2c1 | inactive: 0.743%
CC(=O)Nc1nonc1-c1nc2ccccc2n1Cc1ccccc1Br | inactive: 1.24%
COc1cc2c(cc1OC)C(COc1ccc3c(C)cc(=O)oc3c1)N(C(=O)CC(C)C)CC2 (centres undefined) | inactive: -2.23%
CN1CCN(C(CNC(=O)c2ccccc2)c2ccc3c(c2)OCO3)CC1 (centres undefined) | inactive: 7.79%
O=C(NCc1cccc(Cl)c1)C1CCCN(c2ncnc3onc(-c4ccc(F)cc4)c23)C1 (centres undefined) | inactive: -17.4%

Structure (SMILES) | activity change, negative = cytotoxicity
CCn1c(=O)cc(SCC(=O)N2CCN(c3ccccc3F)CC2)c2ccccc21 | inactive: -3.07%
CCOc1ccc(NC(=O)c2c(NC(=O)c3cccs3)sc3c2CCC(C(C)(C)C)C3)cc1 (centres undefined) | inactive: 16.5%
COc1ccccc1NC(=O)c1cc(S(=O)(=O)NCCC2=CCCCC2)ccc1F | inactive: -3.84%
Cc1ccccc1CN1CCCN(CC(=O)Nc2ccc3c(c2)OCCO3)S1(=O)=O | inactive: 1.03%
COc1ccc(NC(=O)CCc2c(C)nc3c(-c4ccc(F)cc4)c(C)nn3c2C)c(OC)c1 | inactive: 10.5%
COC(=O)c1cc(NC(=O)c2ccc(-c3ccc(Cl)cc3Cl)o2)cc(C(=O)OC)c1 | inactive: 4.09%
CCOC(=O)c1noc2nc(C)n(Cc3ccc([N+](=O)[O-])cc3)c(=O)c12 | inactive: 6.22%
Cc1cccc(Cn2nnc3c(=O)[nH]c(C4CCN(C(=O)c5ccc(F)cc5)CC4)nc32)c1 | inactive: -11.7%
COc1ccc(NC(=O)NC(C)c2c(-n3cccc3)sc3c2CCN(C)C3)c(OC)c1 (centres undefined) | inactive: 3.3%
CCOc1ccc(NC(=O)CN(C)S(=O)(=O)c2cnc[nH]2)cc1 | inactive: -9.96%
Nc1c(C(=O)Nc2cccc(C(F)(F)F)c2)c2ccccn2c1C(=O)c1ccccc1 | inactive: -0.0254%
CCOC(=O)c1sc(NC(=O)c2cc(-c3ccc(F)cc3)on2)c(C(=O)OCC)c1C | inactive: 1.06%
Cc1c(CC(=O)NCCc2ccc(Cl)cc2)c(=O)oc2c(C)c3occ(C(C)(C)C)c3cc12 | inactive: -17.2%
Cc1ccc(NC(=O)C2CCCN(S(=O)(=O)c3cccc4cccnc34)C2)c(C)c1 (centres undefined) | inactive: -15.9%
CCOC(=O)CSc1nc2ccc(NC(=O)c3ccccc3F)cc2s1 | inactive: 1.22%
Cc1ccccc1-c1nc2cc(NC(=O)COc3ccc(F)cc3)ccc2o1 | inactive: 10.4%
CCOC(=O)c1c(-c2ccccc2)csc1NC(=O)c1cc(-c2ccc(Cl)cc2)on1 | inactive: 2.02%
CCS(=O)(=O)c1nc(S(=O)(=O)c2ccc(Cl)cc2)c(NCc2ccccc2Cl)s1 | inactive: -25.8%
CCOc1ccc(CNC(=O)c2ccc(Sc3ccc(Cl)cc3)c(NC(C)=O)c2)cc1OC | inactive: 1.84%
COc1ccc(OC)c(C2c3c(oc4ccc(C)cc4c3=O)C(=O)N2CCCN(C)C)c1 (centres undefined) | inactive: -1.95%
CC(=O)Nc1cccc(NC(=O)c2c(-c3ccccc3)c(-c3ccccc3)nn(C)c2=O)c1 | inactive: -14.9%
CCc1ccccc1NS(=O)(=O)c1ccc2c(c1)OCC(C(=O)N1CCCC1)O2 (centres undefined) | inactive: -17.2%
